# Results reported in the supplement of paper PMC3334620.
# Over roughly 33,000 sequences, “E-score (-0.5 to 0.5)” has its median near -0.011; the highest 2% begin near 0.28. This is one part of the list.
# Target: T1, Gcr1 (UniProt P07261)
# T1 sequence: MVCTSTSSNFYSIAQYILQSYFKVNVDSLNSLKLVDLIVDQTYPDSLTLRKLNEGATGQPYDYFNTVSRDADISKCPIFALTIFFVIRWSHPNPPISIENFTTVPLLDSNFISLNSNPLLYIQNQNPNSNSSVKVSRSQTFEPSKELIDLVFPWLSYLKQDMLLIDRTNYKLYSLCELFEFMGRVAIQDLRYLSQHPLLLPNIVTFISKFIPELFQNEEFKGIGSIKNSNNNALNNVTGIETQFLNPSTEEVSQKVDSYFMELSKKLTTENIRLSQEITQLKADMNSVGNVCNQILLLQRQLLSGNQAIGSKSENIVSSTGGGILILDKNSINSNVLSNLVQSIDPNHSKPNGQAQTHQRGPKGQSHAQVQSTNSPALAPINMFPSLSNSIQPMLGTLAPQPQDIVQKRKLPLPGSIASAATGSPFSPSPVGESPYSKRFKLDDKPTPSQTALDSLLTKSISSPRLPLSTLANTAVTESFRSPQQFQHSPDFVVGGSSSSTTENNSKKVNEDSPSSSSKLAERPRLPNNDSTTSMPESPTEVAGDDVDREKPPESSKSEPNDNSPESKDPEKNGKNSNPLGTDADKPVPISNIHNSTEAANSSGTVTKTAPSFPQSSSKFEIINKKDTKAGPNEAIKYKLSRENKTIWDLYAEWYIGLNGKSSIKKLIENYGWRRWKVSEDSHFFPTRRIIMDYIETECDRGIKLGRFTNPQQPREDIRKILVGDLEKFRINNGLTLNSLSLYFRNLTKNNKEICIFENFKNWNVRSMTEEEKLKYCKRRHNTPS
# Assay: PBM E-score (8-mer binding enrichment) (E-score (-0.5 to 0.5)); higher = stronger / more preferred TF binding; most listed sequences are background and not binding sites
# Details: protein concentration: 100 nM; construct: GST-full length
# Summary of the method: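 Universal all-10-mer Agilent arrays, double-stranded by primer extension on fresh or once-stripped slides, were probed with about 100-200 nM GST-tagged yeast transcription factors made by PURExpress. Fluorescent anti-GST detected bound protein, and masliner normalised the scans. E-scores from the Universal PBM Analysis Suite were given to each ungapped eight-base word pooled with its reverse complement.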
row,Sequence,PBM E-score
1,GTTGTTGA,0.112
2,AGTGAACA,-0.106
3,TGGTCGAA,-0.269
4,TAGAAATA,-0.0925
5,GTTTCCGA,0.109
6,CCACTATA,0.276
7,GCCGGAGC,0.227
8,CCCATTCG,0.135
9,GCAGGACC,0.0308
10,AAGCCCTG,-0.198
11,AATTTTGC,0.0363
12,AATATGCG,0.0425
13,GAAATGAC,-0.122
14,CCCCATAA,0.201
15,CCTATTAG,0.0477
16,CCATATGC,-0.00395
17,AGGGATTC,0.276
18,CAGCATCG,0.0157
19,CGCTGGCA,0.0601
20,CCGATCCC,-0.184
21,CACAGATC,0.0515
22,AATGGGTC,0.00058
23,CGTCGTAA,0.0685
24,TCTTGCCA,-0.216
25,TCAGGGAA,-0.0045

row,Sequence,PBM E-score
1,AAATGCAG,-0.175
2,GCGCCATA,0.254
3,AGTTTGCA,-0.0214
4,AGAGACTA,-0.0782
5,CACAGCTC,-0.255
6,ACCTAGTG,0.129
7,CAACTTCC,0.321
8,AAATTCTG,0.111
9,AAGATTGG,0.153
10,GGCACGAC,-0.182
11,ATCTACTG,0.105
12,GCACGTTA,-0.0593
13,ACCGACGT,-0.164
14,GTCAGTTA,-0.0622
15,AGCACAAT,-0.0977
16,ACACCATC,-0.174
17,GTAATAAA,0.106
18,CCGGCAAA,-0.0617
19,AAAGACAA,0.0383
20,ACCTGTTC,0.126
21,CACAGTGA,-0.105
22,AACGGTTC,-0.172
23,CATGTGGG,-0.0685
24,CATGTTTA,0.00797
25,ACCATAAT,0.18

row,Sequence,PBM E-score
1,CATTCACA,-0.0409
2,ACTTGCTC,0.001
3,CTCTTCTC,-0.156
4,CCCAGGCG,0.114
5,AATGGCAC,0.0245
6,GCAGGTAA,0.0517
7,GTCCCCAA,0.121
8,ATACCCAA,0.2
9,AGAAGCTA,0.338
10,CAAGGCGG,0.0282
11,ACGTTGAC,-0.267
12,ATCTGCTA,-0.212
13,GTGGTAGA,-0.166
14,AATGCGCG,-0.108
15,ACACGCCT,-0.087
16,CTCGCGCA,-0.262
17,AATGACCG,-0.253
18,GCTGATAC,0.0262
19,CCCCAGGA,-0.0974
20,CCGTCGAC,-0.201
21,GAGGTCAC,-0.0616
22,CGACCCCC,-0.203
23,CCACAGAC,-0.0659
24,GGACTCAC,-0.173
25,ACCGGTGG,-0.0926

row,Sequence,PBM E-score
1,TAATCACA,0.0794
2,AATCGTCG,-0.258
3,ACCTTAAG,0.0276
4,CCCCGAAA,0.119
5,ATGAACCG,-0.155
6,ACGAAAGC,-0.0154
7,ATCTGGTG,0.208
8,CATATAGA,0.21
9,GCCGATGA,-0.094
10,GGCTTCAC,-0.14
11,GAGACACC,0.0228
12,AGTCTGAT,-0.062
13,CGAGGACA,-0.218
14,ACGCGATC,-0.0568
15,ATGCCCAA,-0.0436
16,AACGCCGG,-0.0916
17,GACCTAAC,0.0579
18,AAGTGTGT,-0.144
19,GGAAAGGA,-0.0351
20,CTTCTCGA,-0.0527
21,CTAAACGA,-0.00769
22,ATTTTTAC,0.0328
23,AACCTAGT,0.224
24,ACTGTGTG,-0.111
25,CACGACCC,-0.0368

row,Sequence,PBM E-score
1,GCGTAGAA,-0.025
2,ACAGTAGT,-0.00605
3,CGTCTATA,0.129
4,ACACAAAA,0.141
5,CTTTCCCC,0.0545
6,ACTGAAAC,0.0485
7,CCGCCGGC,-0.0753
8,CCGTCAGA,-0.178
9,ATGTTGTA,0.104
10,AGCTGCTG,0.248
11,AGCACCCA,0.351
12,ATACGAAC,0.0987
13,GAGGGGGA,-0.17
14,GCCATGGC,-0.161
15,ACAGAAGC,0.271
16,CTCCCAGA,0.136
17,AGTTCCTA,0.116
18,GGCTCCCC,0.228
19,ATAATGCG,-0.00804
20,CGGGATAC,0.304
21,ATCATGTG,-0.277
22,AACTTAGT,-0.119
23,ACGGCAGA,0.0602
24,CATCGAAC,-0.187
25,AAACTACA,0.201

row,Sequence,PBM E-score
1,GCCTGGGA,0.104
2,ACTGATCG,-0.109
3,GTGAAGTA,-0.172
4,CCCGAGGG,-0.106
5,TATAACAA,0.0961
6,ATTTCGTC,0.0151
7,CCTGTCAC,0.163
8,AGTCGAAT,-0.0217
9,ACCCACCT,-0.117
10,AACCGTTC,-0.0422
11,AGGTGGGC,-0.163
12,CCGACAAC,0.0732
13,CCTGTACC,0.1
14,AATGAGAA,-0.0333
15,ACGCACAC,-0.0982
16,AGTGTGAT,-0.12
17,ATAAGCGA,-0.0589
18,CGTCACAG,-0.0234
19,GAGAAGTA,-0.0701
20,CGCACGAC,-0.161
21,ATTGCACA,-0.0616
22,CGGGGAGC,0.0778
23,AATACCTG,0.106
24,ACTCGCTA,-0.197
25,AAACCACT,0.0327

row,Sequence,PBM E-score
1,GCCCGGAC,-0.137
2,AATAGCGA,0.072
3,CTGATTGA,-0.0741
4,CCTCCGAA,0.136
5,GAACAGGC,0.00482
6,ACCGATTA,0.113
7,AATAGGTC,0.00851
8,AAAGGCGG,-0.0258
9,TAGGCAAA,-0.0552
10,GCAATCAC,-0.29
11,AATGAGGC,-0.111
12,ATTCCCAC,-0.0204
13,GCACTTCC,0.168
14,CTCTTAAC,-0.0399
15,ACGAGAAC,-0.0918
16,CTGACTCC,0.0542
17,GCACGGTA,-0.172
18,GCCCGCAC,-0.00545
19,ACGATATG,-0.0605
20,ATGTACGC,-0.193
21,ACATTTAA,0.151
22,CGAGAGCG,-0.0662
